Test results reported in patent publication US11578136B2, “Compositions and methods for treating cancer” (INNATE PHARMA, priority 2017, dated 2023).

T1: CD39 mutants transfected in Hek-293T cells (Homo sapiens, UniProt P49961, E143A/N99A/Q96A/R147E)
T1 construct: expressed in transfected cells; host or cells: HEK-293T cells
T1 sequence (P49961 1-510 Q96A/N99A/E143A/R147E): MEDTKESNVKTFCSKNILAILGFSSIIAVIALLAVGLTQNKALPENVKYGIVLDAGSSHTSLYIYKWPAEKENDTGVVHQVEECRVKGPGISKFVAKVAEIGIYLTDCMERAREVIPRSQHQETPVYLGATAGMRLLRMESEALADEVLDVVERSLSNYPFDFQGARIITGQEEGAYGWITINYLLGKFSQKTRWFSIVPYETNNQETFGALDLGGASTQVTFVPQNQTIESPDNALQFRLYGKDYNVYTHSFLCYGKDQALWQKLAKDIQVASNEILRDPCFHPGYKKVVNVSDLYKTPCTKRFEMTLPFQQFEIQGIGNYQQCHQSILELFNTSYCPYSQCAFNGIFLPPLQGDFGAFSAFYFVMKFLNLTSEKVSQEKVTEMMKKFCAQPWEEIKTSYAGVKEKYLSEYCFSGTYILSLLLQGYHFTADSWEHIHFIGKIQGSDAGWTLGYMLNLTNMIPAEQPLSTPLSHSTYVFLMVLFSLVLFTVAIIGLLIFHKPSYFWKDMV

T2: CD39 mutants transfected in Hek-293T cells (Homo sapiens, UniProt P49961, E142K/M139A/R138A)
T2 construct: expressed in transfected cells; host or cells: HEK-293T cells
T2 sequence (P49961 1-510 R138A/M139A/E142K): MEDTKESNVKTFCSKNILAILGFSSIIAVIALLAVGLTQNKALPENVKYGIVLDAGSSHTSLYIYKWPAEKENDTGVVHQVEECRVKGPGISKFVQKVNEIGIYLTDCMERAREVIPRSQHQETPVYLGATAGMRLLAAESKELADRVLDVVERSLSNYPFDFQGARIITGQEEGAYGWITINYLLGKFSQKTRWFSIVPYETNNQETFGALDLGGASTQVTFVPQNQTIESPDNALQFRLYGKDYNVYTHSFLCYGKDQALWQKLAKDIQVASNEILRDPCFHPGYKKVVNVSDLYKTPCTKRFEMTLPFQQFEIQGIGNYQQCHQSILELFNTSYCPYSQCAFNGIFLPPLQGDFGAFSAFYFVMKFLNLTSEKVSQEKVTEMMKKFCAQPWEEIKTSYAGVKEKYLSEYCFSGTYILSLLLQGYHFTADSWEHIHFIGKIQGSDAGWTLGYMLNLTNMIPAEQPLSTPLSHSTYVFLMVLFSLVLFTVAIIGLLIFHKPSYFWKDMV

T3: soluble recombinant human CD39 protein (Homo sapiens, UniProt P49961)
T3 construct: made in house; host or cells: CHO cells
T3 sequence (P49961 with tags, fused parts or gaps): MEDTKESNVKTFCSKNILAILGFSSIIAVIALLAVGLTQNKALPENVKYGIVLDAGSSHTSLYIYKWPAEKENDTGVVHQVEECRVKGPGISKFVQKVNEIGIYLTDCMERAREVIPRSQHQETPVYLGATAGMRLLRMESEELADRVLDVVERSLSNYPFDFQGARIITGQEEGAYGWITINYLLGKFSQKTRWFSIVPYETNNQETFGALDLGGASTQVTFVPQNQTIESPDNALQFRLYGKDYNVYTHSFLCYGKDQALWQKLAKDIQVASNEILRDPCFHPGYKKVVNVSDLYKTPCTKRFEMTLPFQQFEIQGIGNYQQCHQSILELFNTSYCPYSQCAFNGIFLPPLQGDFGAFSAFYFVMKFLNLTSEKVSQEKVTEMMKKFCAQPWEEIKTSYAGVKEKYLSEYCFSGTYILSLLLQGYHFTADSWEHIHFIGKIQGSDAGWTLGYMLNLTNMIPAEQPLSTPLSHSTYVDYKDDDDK

T4: cell-membrane bound CD39 (Homo sapiens, UniProt P49961)
T4 sequence (P49961 1-510): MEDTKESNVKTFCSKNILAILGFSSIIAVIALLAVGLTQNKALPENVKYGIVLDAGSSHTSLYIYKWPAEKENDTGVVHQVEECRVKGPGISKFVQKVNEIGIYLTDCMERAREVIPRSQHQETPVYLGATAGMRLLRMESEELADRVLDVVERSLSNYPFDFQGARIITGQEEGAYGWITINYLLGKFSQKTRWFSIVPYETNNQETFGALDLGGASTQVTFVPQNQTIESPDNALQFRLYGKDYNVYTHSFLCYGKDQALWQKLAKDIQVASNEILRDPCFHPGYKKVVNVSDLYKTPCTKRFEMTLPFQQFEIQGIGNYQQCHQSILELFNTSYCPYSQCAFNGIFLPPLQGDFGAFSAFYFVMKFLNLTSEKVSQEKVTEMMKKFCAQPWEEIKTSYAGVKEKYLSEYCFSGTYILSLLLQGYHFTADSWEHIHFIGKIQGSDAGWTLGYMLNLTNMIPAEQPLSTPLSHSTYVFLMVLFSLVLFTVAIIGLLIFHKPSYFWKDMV

T5: CD39 mutants transfected in Hek-293T cells (Homo sapiens, UniProt P49961, D107A/E100A/K87A)
T5 construct: expressed in transfected cells; host or cells: HEK-293T cells
T5 sequence (P49961 1-510 K87A/E100A/D107A): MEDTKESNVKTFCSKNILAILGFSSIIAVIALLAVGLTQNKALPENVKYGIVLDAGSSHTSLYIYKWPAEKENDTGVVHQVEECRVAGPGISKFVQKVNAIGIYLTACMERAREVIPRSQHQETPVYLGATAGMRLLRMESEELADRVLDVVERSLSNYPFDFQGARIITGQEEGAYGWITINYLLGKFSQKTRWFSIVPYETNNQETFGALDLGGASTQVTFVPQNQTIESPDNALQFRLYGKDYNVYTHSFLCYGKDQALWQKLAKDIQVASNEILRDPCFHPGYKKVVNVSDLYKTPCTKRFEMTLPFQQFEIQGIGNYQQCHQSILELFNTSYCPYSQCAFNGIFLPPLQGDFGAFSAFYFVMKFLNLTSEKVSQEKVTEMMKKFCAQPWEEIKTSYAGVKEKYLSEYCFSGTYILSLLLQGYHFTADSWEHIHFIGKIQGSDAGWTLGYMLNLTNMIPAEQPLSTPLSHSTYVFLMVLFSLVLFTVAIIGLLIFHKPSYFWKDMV


Assays:
[1] = target: T1, CD39 mutants transfected in Hek-293T cells; experiment: Epitope mapping: binding to CD39 mutants by flow cytometry; details: mutant 5: Q96A, N99A, E143A, R147E; vs wild-type CD39
Protocol: (§1) CD39 mutants were generated by PCR. The sequences amplified were run on agarose gel and purified using the Macherey Nagel PCR Clean-Up Gel Extraction kit (reference 740609). The purified PCR products generated for each mutant were then ligated into an expression vector, with the ClonTech InFusion system. The vectors containing the mutated sequences were prepared as Miniprep and sequenced. After sequencing, the vectors containing the mutated sequences were prepared as Midiprep using the Promega PureYield™ Plasmid Midiprep System. HEK293T cells were grown in DMEM medium (Invitrogen), transfected with vectors using Invitrogen's Lipofectamine 2000 and incubated at 37° C. in a CO2 incubator for 48 hours prior to testing for transgene expression. The targeted amino acid mutations in the table 1 below are shown using numbering of SEQ ID NO: 1.
(§2) In order to define the epitopes of anti-CD39 antibodies, we designed CD39 mutants defined by substitutions of amino acids exposed at the molecular surface over the surface of CD39. Mutants were transfected in Hek-293T cells, as shown in the table 1, using numbering of SEQ ID NO: 1.
(§3) Dose-ranges of I-394 (10-2.5-0.625-0.1563-0.0391-0.0098-0.0024-0.0006 μg/ml) are tested on the 20 generated mutants by flow cytometry. […] Mutant 5 contains amino acid substitutions at residues Q96, N99, E143 and R147.
(§4) Mutants were transfected in Hek-293T cells, as shown in the table 1, using numbering of SEQ ID NO: 1. Dose-ranges of antibodies I-394 were tested on the 20 mutants by flow cytometry. […] Mutant 19 includes substitutions at residues R138, M139 and E142. The core epitope of I-394 thus includes one or more (or all of) residues R138, M139 and E142.
(§5) Mutants were transfected in Hek-293T cells, as shown in the table 1, using numbering of SEQ ID NO: 1.Dose-ranges of test antibodies (10-2.5-0.625-0.1563-0.0391-0.0098-0.0024-0.0006 μg/ml) are tested on the 20 generated mutants by flow cytometry.

[2] = target: T2, CD39 mutants transfected in Hek-293T cells; experiment: as above; details: mutant 19: R138A, M139A, E142K; vs wild-type CD39
Protocol: as §1, §2, §3, §4, §5

[3] = target: T3, soluble recombinant human CD39 protein; experiment: Inhibition of the enzymatic activity of soluble CD39 (Cell Titer Glo); format: biochemical; details: for relative potency of inhibition of soluble CD39 (FIG. 2B): ranking among I-394, I-395, I-396; for inhibition of the enzymatic activity of soluble CD39 protein: result in words, 400 ng/ml sCD39, 20 μM ATP
Protocol: The inhibition by antibodies of the enzymatic activity of soluble CD39 protein produced was evaluated using Cell Titer Glo™ (Promega, reference G7571) that allows assessment of ATP hydrolysis through use of a reagent that generates a luminescent signal proportional to the amount of ATP present. In this way, inhibition of the soluble-CD39-meidatd ATP hydrolysis can be assessed. Briefly, dose ranges of anti-CD39 antibodies from 100 μg/ml to 6×10^−3 μg/ml were incubated with 400 ng/ml of soluble recombinant human CD39 protein having the amino acid sequence described in the Methods section (SEQ ID NO: 45), for 1 h at 37° C. 20 μM ATP was added to the plates for 30 additional minutes at 37° C. before addition of CTG (Cell Titer Glo) reagent. Emitted light was quantified using an Enspire™ luminometer after a short incubation period of 5 min in the dark. Anti-CD39 antibody efficacy was determined by comparing emitted light in presence of antibody with ATP alone (maximal light emission) and ATP together with soluble CD39 protein (minimal light emission).

cell-membrane bound CD39 = target: T4, cell-membrane bound CD39; experiment: Inhibition of the enzymatic activity of cellular CD39 (cells not specified); format: cell-based; details: for inhibition of ATPase activity of CD39 protein in cells / cell-membrane bound CD39: result in words
Protocol: The inhibition of the CD39 enzymatic activity in CD39-expressing cells by antibodies was evaluated using Cell Titer Glo™ (Promega, reference G7571) that allows assessment of ATP hydrolysis through use of a reagent that generates a luminescent signal proportional to the amount of ATP present. The assay was thus designed to permit assessment of the inhibition of ATP hydrolyzed by CD39 in the cell culture supernatant. Briefly, 5×10^4 Ramos human lymphoma cells, 5×10^3 human CD39-, cynomolgus CD39- and mouse CD39-expressing CHO cells, were incubated 1 hour at 37° C. with anti-CD39 antibodies from 30 μg/ml to […]. Cells were then incubated with 20 μM ATP for 1 additional hour at 37° C. Plates were centrifuged for 2 min at 400 g and 50 μl cell supernatant are transferred in a luminescence microplate (white wells). 50 μl CellTiter-Glo® Reagent (CTG) was added to the supernatant and emitted light was quantified after a 5 min incubation in the dark using a Enspire™ luminometer. Anti-CD39 antibody efficacy was determined by comparing emitted light in presence of antibody with ATP alone (maximal light emission) and ATP together with cells (minimal light emission).
The two antibodies that have been reported to inhibit the ATPase activity of CD39 in cellular assays (BY40 and BY12) were assessed to determine whether are able to inhibit the ATPase activity of recombinant soluble CD39 protein. The inhibition by antibodies of the enzymatic activity of soluble CD39 protein produced as described above was evaluated using Cell Titer Glo™ (Promega, reference G7571). The inhibition by antibodies of the enzymatic activity of cellular CD39 protein was evaluated as indicated above.

[4] = tested on: CD39 mutants transfected in Hek-293T cells; experiment: Epitope mapping: binding to CD39 mutants by flow cytometry; set-up: species or system human; details: remaining mutants of Table 1
Protocol: as §1, §2, §3, §4, §5

[5] = target: T5, CD39 mutants transfected in Hek-293T cells; experiment: as above; details: mutant 15: K87A, E100A, D107A
Protocol: as §1, §2, §3, §4, §5

| binding to cells expressing mutant 5 of CD39 [1] | binding to cells expressing mutant 19 of CD39 [2] | relative potency of inhibition of soluble CD39 (FIG. 2B) [3] | inhibition of the enzymatic activity of soluble CD39 protein [3] | potency and maximal inhibition of cellular CD39 compared to BY40 (FIG. 2A) (cell-membrane bound CD39; compared to BY40) | inhibition of ATPase activity of CD39 protein in cells / cell-membrane bound CD39 (cell-membrane bound CD39) | binding to mutant 15 of CD39 [5] | Molecule | binding to any other mutant of the 20 CD39 mutants [4] |
| --- | --- | --- | --- | --- | --- | --- | --- | --- |
| loss of binding | loss of binding | followed by I-395 | inhibited | greater potency and maximal inhibition | inhibit | – | I-395: anti-CD39 antibody, VH SEQ ID NO: 14, VL SEQ ID NO: 15 (antibody, listed as Mus musculus, V domains shown) VH: EVQLQQSGPELVKPGASVRMSCKASGYTFTDYNMHWVKKNHGKGLEWIGYINPNNGGTTYNQKFKGKATLTVNTSSKTAYMELRSLTSEDSAVYYCTRGGTRFASWGQGTLVTVSA VL: NIVLTQSPASLAVSLGQRATISCRASESVDNYGISFMYWFQQKPGQPPKLLIYAASTQGSGVPARFSGSGSGTDFSLNIHPMEEDDTAMYFCQQSKEVPFTFGSGTKLEIK | – |
| – | – | lower potency | inhibited | – | inhibit | loss of binding | I-396: anti-CD39 antibody, VH SEQ ID NO: 22, VL SEQ ID NO: 23 (antibody, listed as Mus musculus, V domains shown) VH: EVQLQQSGAELVKPGASVKLSCIVSGFNIKDTYINWVKQRPEQGLEWIGRIDPANGNTKYDPKFQGKATMTSDTSSNTAYLHLSSLTSDDSAVYYCARWGYDDEEADYFDSWGQGTTLTVSS VL: DIVLTQSPASLAVSLGQRATISCRASESVDNYGISFMNWFQQKPGQPPKLLIYAASNQGSGVPARFSGSGSGTDFSLNILPMEEVDAAMYFCHQSKEVPWTFGGGTKLEIK | without loss of binding |
